Test results taken from PubChem BioAssay AID504832 (National Center for Advancing Translational Sciences (NCATS), 2011).
Out of some 310,000 compounds screened, about 18,000 (5.8%) were called active. The shares of active, inactive and inconclusive entries below differ from those in the screen. Calls come from the whole dose curve; as a rule, active = well fitted inhibition curve with a large enough effect; inconclusive = small, poorly fitted or top-dose-only effect, or another doubt; inactive = no such curve, though single readings can be large or run the other way. No potency is given beside an inconclusive call; the fits are too rough.

test: Primary qHTS for delayed death inhibitors of the malarial parasite plastid, 48 hour incubation; conditions: P. falciparum luciferase growth in erythrocytes; series mostly up to 28.7 µM
Method in brief: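 Luminescence readout; reporter = integrated firefly luciferase in P. falciparum. RBC culture at 2% hematocrit, 0.1% parasitemia final, 37 C/5% CO2; decreased signal taken as growth inhibition.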
Potency is the fitted concentration of half-maximal effect; tags give direction and shape of the fitted curve.

Row | Structure (SMILES) | Potency
1 | CCOC(=O)N1CCN(C(=O)C2CC(c3cc(OC)ccc3OC)=NO2)CC1 (stereo not drawn) | inconclusive [inhibitor, partial curve, poor fit]
2 | Cc1ccc(C)c(NC(=S)NNc2ccc(F)cc2F)c1 | inconclusive [inhibitor, single point]
3 | CCc1ccc2[nH]c(C(=O)Nc3ccc(C)c(F)c3)cc2c1 | inconclusive [inhibitor, partial curve]
4 | CCOc1ccccc1CN1C(=O)NC2(CCCCCC2)C1=O | inactive
5 | CCC(Sc1ncnc2c1c(-c1ccccc1)cn2-c1ccc(OC)cc1)C(=O)OC (stereo not drawn) | inconclusive [inhibitor, single point]
6 | CCOC(=O)c1ccc2c(c1)[n+](CC)c(C)n2-c1ccccc1 | inconclusive [inhibitor, partial curve]
7 | COc1cc(NC(=O)C2CCC(CNc3c(N4CCCCC4)c(=O)c3=O)CC2)cc(OC)c1 (stereo not drawn) | active: 11.7 µM
8 | CCC(Cc1ccccc1)NC(=O)C1=C(C)C(=O)OC12CCC(C)CC2 (stereo not drawn) | inactive
9 | CC(C)C[C@H]1CN=C(N(C)C)N1CCCCc1ccccc1 | active: 5.22 µM
10 | COc1ccccc1-c1c(C(F)(F)F)oc2cc(OCC(=O)Nc3cc(C)ccc3C)ccc2c1=O | inconclusive [inhibitor, single point]
11 | O=c1cc(-c2ccc(O)c(-c3c(O)cc(O)c4c(=O)cc(-c5ccc(O)cc5)oc34)c2)oc2cc(O)cc(O)c12 | inconclusive [inhibitor, single point]
12 | CCN(CC)CCCNC(=O)c1ccc(S(=O)(=O)Nc2ccc(C)c(C)c2)cc1 | inconclusive [inhibitor, single point]
13 | CCCn1c2c(c(=N)c3c1CCC3)CCCC2 | active: 0.37 µM
14 | Cc1ccccc1NC(=O)COc1ccc(Br)cc1CNCCCO | inconclusive [inhibitor, single point]
15 | COc1ccc(C)cc1NC(=O)COC(=O)CCC(=O)c1cccs1 | inconclusive [inhibitor, single point]
16 | O=C(NCC1CCCO1)c1ccccc1NC(=O)c1cccc2ccccc12 (stereo not drawn) | inconclusive [inhibitor, single point]
17 | COC(=O)c1cc(C(=O)OCC(=O)NNC(=O)c2cccs2)cc([N+](=O)[O-])c1 | inconclusive [inhibitor, partial curve, poor fit]
18 | COc1ccc(CNC(=O)c2cc3cccc(O)c3oc2=N)cc1 | inconclusive [inhibitor, full curve, poor fit]
19 | CCc1ccc(S(=O)(=O)NCCc2cn3cccc(C)c3n2)s1 | inactive
20 | COc1ccc(Cl)cc1NC(=O)CCc1nnc2ccc(N3CCC4(CC3)OCCO4)nn12 | inconclusive [inhibitor, partial curve]
21 | CCN(c1ccccc1)P(=O)(Nc1ccccc1)Nc1ccccc1 | inconclusive [inhibitor, single point]
22 | Cc1ccc(CSc2nnc(CCNC(=O)OC(C)(C)C)o2)cc1 | inconclusive [inhibitor, partial curve, poor fit]

Row | Structure (SMILES) | Potency
23 | COc1ccc(OC)c(NC(=O)Nc2nnc(N3CCCCC3C)s2)c1 (stereo not drawn) | inactive
24 | COc1ccccc1C(=O)NC(CCSC)C(=O)NCC(c1ccccc1OC)N1CCCC1 (stereo not drawn) | inconclusive [inhibitor, single point]
25 | CC12CC3(C)CC(C)(C1)CC(C(=O)NC(=S)N1CCCC1)(C2)C3 | active: 6.57 µM
26 | Cc1nn2c(NCCN(C)C)c3c(nc2c1-c1ccccc1)CCC3 | inconclusive [inhibitor, partial curve, poor fit]
27 | CCC(=O)Nc1ccc2c(c1)ncn2-c1ccc(OC)cc1 | inactive
28 | Cc1noc(C)c1S(=O)(=O)NCCN1CCN(c2ccccc2)CC1 | inactive
29 | CC(=O)Nc1ccc2nc(NC(=O)COc3ccccc3C)sc2c1 | inactive
30 | Cn1c(SCc2ccc([N+](=O)[O-])cc2)nc2c(c1=O)SCC2 | inconclusive [inhibitor, single point]
31 | NC(=O)C1CCN(C(=O)C23CC4CC(CC(C4)C2)C3)CC1 | inactive
32 | O=C(c1cn(Cc2ccccc2)c2ccccc12)N1CCCCC1 | inconclusive [inhibitor, single point]
33 | O=C(Nc1ccccc1N1CCCC1)c1ccc(F)c(S(=O)(=O)N2CCOCC2)c1 | inconclusive [inhibitor, single point]
34 | O=S(=O)(c1ccc2c(c1)CCC2)N1CCNCC1 | inactive
35 | COc1ccc(N(CC(=O)NCc2cccs2)S(=O)(=O)c2cccc(C)c2)cc1 | inconclusive [inhibitor, partial curve, poor fit]
36 | Cc1ccc(-c2noc(Cn3cc(S(=O)(=O)N4CCCC4)ccc3=O)n2)cc1 | inactive
37 | CC(C)Cc1ccc(-c2cc(=O)[nH][nH]2)cc1 | inconclusive [inhibitor, single point]
38 | CCOC(=O)N1CCN(C(=O)c2cc3c(-c4cccc(OC)c4)nn(C)c3s2)CC1 | inactive
39 | Nc1c(C(=O)CSc2nnc(COc3ccc(Cl)cc3)o2)c(=O)[nH]c(=O)n1C1CC1 | inconclusive [inhibitor, partial curve, poor fit]
40 | CCOC(=O)C1=C(C)N=c2s/c(=C3/C(=O)Nc4ccccc43)c(=O)n2C1c1ccc(C)cc1 (stereo not drawn) | inactive
41 | CON(C)S(=O)(=O)c1cccc(C(=O)Nc2ccc(S(=O)(=O)NC3=NCCCCC3)cc2)c1 | inconclusive [inhibitor, partial curve]
42 | COc1ccc(-c2cn3c(C)c(C(=O)Nc4cc(NC(C)=O)ccc4OC)sc3n2)cc1 | inactive
43 | CCCCCC(=O)N[C@@H](c1ccccc1)[C@@H](O)C(=O)O[C@H]1C[C@@]2(O)[C@@H](OC(=O)c3ccccc3)C3[C@](C)(C(=O)[C@H](O)C(=C1C)C2(C)C)[C@@H](OC1OCC(O)C(O)C1O)C[C@H]1OC[C@@]31OC(C)=O (stereo partly drawn) | inconclusive [inhibitor, partial curve, poor fit]
